Laboratory results published in the supplement of paper PMC10126150.
Sequences with one replicate were seen in a single cluster, so their values are uncertain.

System: ATP
Assay: switch fluorescence ratio, 500 uM ATP over buffer (Cy3 cluster intensity, sum of 5 cycles each) (fold (ratio)); higher = stronger signal-on switching upon ATP binding; sequences stand for … in TCGTCGGCAGCGTCAGATGTGTATAAGAGACAGTTTTTTTTTTTTTTTTTTTTTTTTT…TC
Conditions: aptamer strand: ATP DNA aptamer (quencher-CACCTGGGGGAGTATTGCGGAGGAAGG + anchor), 100 nM annealed; ATP concentration: 500 uM; one replicate
Outline: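 Per cluster, summed Cy3 intensity from the target cycles was divided by that from the buffer cycles to give the fluorescence ratio, then averaged per switch-domain sequence. Clusters outside 100-1000 RFU were excluded. The Cy3-labelled switching-strand clusters, on a modified Illumina MiSeq flow-cell, were annealed to 100 nM quencher-labelled ATP aptamer and imaged in selection buffer, then after 15 min with 500 uM ATP at 22 °C, for five cycles with NaOH stripping and re-annealing between them.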
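Also: ATP exposure 15 min at 22 °C before imaging.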

Row | Sequence | switch fluorescence ratio
1 | CCAACCGGTA | 1.04
2 | TGTGGTAGCA | 0.987
3 | ATATCCTTTG | 0.967
4 | TGCTCCTCGC | 1.15
5 | GGGCCACCTG | 0.992
6 | GCTCTGCCTT | 1.11
7 | TGGATCATTC | 1
8 | CCGTGTTTTG | 0.971
9 | ACCGGCCGGG | 1.04
10 | GGTCCAACGT | 1.04
11 | GGGAACATCA | 1.03
12 | GAGAATTCGA | 0.99
13 | CGGTAGGTAA | 0.991
14 | CTGAGGGTTC | 0.985
15 | AAATGCCTAG | 0.949
16 | TCCCATATGA | 1.01
17 | GAGCCACCGA | 1.04
18 | AAGCCAAGGG | 0.993
19 | GGGTAGGCCG | 0.887
20 | CTCACGGATC | 1.34
21 | TATATCTTAC | 1.08
22 | CAAAAGCCAA | 1.08
23 | GTACTACGGA | 0.99
24 | TGAAGTCATA | 1.03
25 | ATTCTATCTG | 0.982
26 | CATGCTGACC | 1.03

Row | Sequence | switch fluorescence ratio
27 | AAAAGATAGA | 0.972
28 | ATCAGTAGGT | 0.988
29 | GCTGGTGAGG | 0.986
30 | GCGGAACGAA | 1.01
31 | TGAGAGATGT | 1.01
32 | ACTAACCCCG | 1.18
33 | AGAGTGACGG | 1.01
34 | CTTCCATTTA | 0.994
35 | TGCGAAGAAT | 1.08
36 | ACCGTCAGCA | 1.18
37 | CTTGACGGTG | 1.01
38 | CTAAGCCGGG | 1.01
39 | CTGCGGTGTA | 0.97
40 | GATAAACACT | 1.03
41 | AAGGTCCGGT | 0.974
42 | TATAAATTCA | 1.04
43 | TGAACCCATG | 1.23
44 | CTAGAGAGGC | 1.01
45 | TCTCCTTTTA | 1.67
46 | ACGGAGTAGT | 1.02
47 | TTTCAGG | 1.01
48 | AGAAACGGGC | 0.828
49 | AATAGCTATA | 1
50 | ACAGGATTAA | 1
51 | GATATTGGAG | 1
52 | ACTGTTAGC | 1

Row | Sequence | switch fluorescence ratio
53 | TCGTTGTGTT | 1.02
54 | GACGGTAGAC | 1.87
55 | ACGGATCCGG | 0.931
56 | GATTTGATAT | 0.998
57 | AGTCATAAAC | 1
58 | GACGTCCTAG | 0.993
59 | ACATGGAGTT | 0.992
60 | TGTTAAGACA | 1.08
61 | CTATCCGACG | 2.17
62 | TTTGATAGGT | 0.975
63 | TTCAGAGCTA | 1.03
64 | TCGCGGCTAC | 4.79
65 | GCTGCGAATG | 0.991
66 | GTTATTAGGA | 1.06
67 | TTCCGTTTGT | 0.984
68 | GATGGAGGG | 0.939
69 | ATGAAACATG | 1.04
70 | GTAAAAGAGT | 0.995
71 | AAGTAGGTTG | 0.953
72 | AAAGTTACCT | 0.986
73 | ATTCGCAGAA | 1.04
74 | ATTCAGTACC | 1.04
75 | TACTGTAAGG | 1.01
76 | CAGGGGATGG | 0.936
77 | AGTTTGGGAT | 0.982
78 | AGTTCGAAGT | 1.02

Row | Sequence | switch fluorescence ratio
79 | AATATATCAG | 0.967
80 | AGTTTTACTC | 1.11
81 | ACACGAGTCT | 0.972
82 | GCTACTGTAT | 1.15
83 | ACTTCAGAGG | 1.04
84 | CTTAGCTCGA | 1.05
85 | AGGGCTGG | 0.948
86 | ATGGCACATG | 0.994
87 | TGATCGGCTT | 1
88 | AGGAGCTTGG | 1.01
89 | CATTGTATGA | 0.965
90 | TCAGTCGGCA | 0.996
91 | ACGTATCGCG | 0.983
92 | CGTTCGTAGC | 1.13
93 | GTAAAACTGC | 1.07
94 | TTGCTACCGG | 1.04
95 | TTTTTTACGC | 1.04
96 | TAATTATATG | 0.968
97 | GCTAGTTAAC | 0.967
98 | AACCGAAACG | 1.13
99 | ATCAAAAGCA | 1.02
100 | CAGATGGGCG | 0.993
101 | TATCCGGTCC | 1.08
102 | GATAAAGCGG | 0.971
103 | CCAGGGGTTA | 1.48
104 | TTATAGGCTG | 1.09

Row | Sequence | switch fluorescence ratio
105 | CGATCCGAGG | 0.983
106 | CATGGTTAGT | 0.981
107 | ATTACAGTTT | 0.992
108 | GGGGAGATTG | 0.995
109 | AAGATTCATC | 1.02
110 | ATTTTTGCCA | 1.01
111 | CTCGTTCCAA | 1.05
112 | TAGTTAAACG | 1.01
113 | GTCAGAACGA | 1.01
114 | GGACTTGTCA | 0.992
115 | AGAACCGGGA | 1.02
116 | CTTGCAGGAA | 1.01
117 | GCCTGTTATG | 0.993
118 | TTTGACCGCT | 1.03
119 | AGACGGGCCT | 1.06
120 | GTGCCAGGTA | 1.06
121 | GCAACCCGCT | 1.11
122 | TAGAGTTTTC | 1.03
123 | CCGCTGGAAC | 3.97
124 | GGATTGCAGT | 1.01
125 | AGCCTACGAC | 1.45
126 | GTGGCAAGTA | 1.09
127 | CGTGACATA | 1.01
128 | TATCAGAGAG | 0.98
129 | CGAGAAGATA | 1
130 | CGTCAAGGCG | 0.993

Row | Sequence | switch fluorescence ratio
131 | TAGGTCTTGT | 0.966
132 | CTCTAAGCAG | 1.2
133 | CATGATAGTC | 0.95
134 | GGGGCTTACA | 0.978
135 | AGGTGGGCAT | 1
136 | AAGCTTATTA | 1
137 | CAATCAAGTG | 1
138 | ATACTGGAGG | 1.01
139 | TCACAAAAGT | 1.02
140 | AGGCTTTGAG | 0.949
141 | AGGGGTGTAA | 1.02
142 | ACCTCTGTGG | 0.982
143 | CCGATTTCTT | 0.969
144 | AGGTAACATC | 0.989
145 | ATGCCGTCGT | 1.02
146 | GCTCTATTTG | 0.982
147 | TTACATGGGA | 0.998
148 | TATTATCTG | 1.04
149 | TATGTGCGGT | 0.973
150 | AGGGAAAAGC | 1.17
151 | TAGTGTTATT | 0.998
152 | CGTTTACAGC | 0.994
153 | TCAGTTCTTA | 1.03
